From PubChem BioAssay AID493208 (National Center for Advancing Translational Sciences (NCATS), 2011)
The whole screen tested about 44,000 compounds, of which about 340 (0.77%) were called active. Inconclusive results (about 5%) are left out. Calls follow the shape of the dose curve; as a rule, active = well fitted inhibition curve with a large enough effect; inconclusive = small, poorly fitted or top-dose-only effect; inactive = flat fitted curve, though single readings scatter. This is one part of the list.

experiment: Acumen qHTS Assay for Inhibitors of the mTORC1 Signaling Pathway in MEF (Tsc2-/-, p53-/-) Cells: Sytravon; settings: phospho-rpS6 immunofluorescence/PI, 24 h; series mostly up to 38.3 µM; activity change, negative = inhibition: at the top concentration;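 also: plate controls were DMSO for no effect and rapamycin for full effect; nearly all actives have a fitted effect of over 50% in size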
Method in brief: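 Tsc2-/-, p53-/- MEFs (empty-vector stable line) in DMEM + 10% FBS were treated with compounds 24 h at 37 degree Celsius, fixed, and immunostained for phospho-rpS6 (Alexa-488) with propidium iodide counterstain. Laser-scanning cytometry gave % positive cells, normalized against 7.5 nM rapamycin and DMSO.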

Activity change, negative = inhibition, inactive:
CCOC(=O)c1c(C)oc2c1cc(NS(=O)(=O)c1ccc(C)cc1)c1ccccc12 -3.37%
O=C(NC1CC(=O)N(c2ccc(Cl)cc2)C1)C1CCCC1 (stereo unspecified) -9.78%
Cc1ccc(N2CCN(C(=O)c3c(C)oc4ncnc(N5CCCCC5)c34)CC2)c(C)c1 2.28%
COc1ccc(NC(=O)CSc2nc3c(oc4ccccc43)c(=O)n2-c2ccccc2)cc1OC -5.25%
CCC(=O)N1c2ccccc2C(C)(c2ccccc2)CC1(C)C (stereo unspecified) -7.33%
CN1CCN(C(=O)c2ccc3c(c2)N(Cc2ccc(F)cc2)C(=O)c2ccccc2S3=O)CC1 (stereo unspecified) -0.409%
CC(C)(C)OC(=O)N1CCC(c2c(C(=O)NCc3ccccc3)cnn2-c2ccc(F)cc2)CC1 -2.08%
CCOc1ccccc1NC(=O)c1cc(S(=O)(=O)N2CCOCC2)cn1C -0.984%
O=C(CSc1nc(-c2ccccc2)no1)N1CCN(c2ccccc2)CC1 -3.66%
CCN1CCc2c(sc(-n3cccc3)c2C(C)NC(=O)Nc2cc(Cl)c(OC)cc2OC)C1 (stereo unspecified) 0.512%
Cc1sc2c(c1C)c(=O)n(Cc1ccccc1)c(=O)n2CC(=O)N(C)c1ccccc1 -0.157%
CCCNC(=O)c1cnn2c(C(F)F)cc(-c3ccccc3)nc12 -5.23%
COc1ccc(CCNc2oc(COc3cccc(C)c3)nc2C#N)cc1OC -25.9%
CC(C)Oc1ccc(NC(=O)c2cc3ccccc3o2)cc1 -11.1%
COc1ccc(-c2nc(Cn3c(=O)cc(-c4ccccc4)c4c(C)nn(C)c43)c(C)o2)cc1OC 0.102%
CCOc1ccc(Nc2nc3c(S(=O)(=O)c4ccc(CC)cc4)nnn3c3ccc(Cl)cc23)cc1 1.21%
CC1CCN(S(=O)(=O)c2ccc3c(ccc(=O)n3CC(=O)NCc3ccc(Cl)cc3)c2)CC1 -0.989%
CC(=O)c1cccc(NC(=O)CCc2nc3cccnc3n2Cc2cccs2)c1 -9.7%
CC(=O)N1CCc2cc(Br)cc(S(=O)(=O)NCCc3ccc(Cl)cc3)c21 -16.5%
O=C(c1cccn1-c1nnc(N2CCCCC2)s1)N1CCN(c2ccc(Cl)cc2)CC1 2.12%
COc1ccc(CCNc2nc3ccc(C)cc3n3cnnc23)cc1OC -0.581%
CCOC(=O)CSc1nc(-c2ccc(F)cc2)cc(C(F)(F)F)c1C#N 3.45%
CCNc1nc(NC(C)(C)C)nc(Oc2ccc(=O)n(-c3ccccc3)n2)n1 -9.03%
CCn1c(C(=O)N2CCC(C(=O)N3CCN(c4ccc(OC)cc4)CC3)CC2)cc2sccc21 -4.22%
COc1ccc(Cl)cc1N=C1NC(=O)CC(C(=O)Nc2ccccc2C(F)(F)F)S1 (stereo unspecified) -0.966%
CN(C)c1ccc(C(=O)Nc2c(C(=O)NC(C)(C)C)oc3ccccc23)cc1 -0.11%
Cc1cc(C)cc(NC(=O)C(CC(C)C)NC(=O)C2CCCCC2)c1 (stereo unspecified) 5.36%
CC(C)Oc1ccc(CNC(=O)c2ccc3nc(C(C)C)oc3c2)cc1 -1.7%
COc1ccc(-c2nc3scc(CCNS(=O)(=O)c4c(C)cc(C)cc4C)n3n2)cc1OC -6.43%
CCc1nn2c(=O)cc(COC(=O)c3ccc4c(c3)OCO4)nc2s1 11.2%
O=C(NCCn1cc(SCc2ccccc2)c2ccccc21)c1cccs1 -12%
CCCc1cc(=O)[nH]c(Nc2ccccc2O)n1 -3.18%
Cc1cc(C)cc(C(=O)Nc2cccc(-c3nc4ncccc4o3)c2C)c1 0.833%
CC(C)(C)C1CCc2c(sc(NC(=O)c3ccccc3F)c2C(=O)NCc2ccco2)C1 (stereo unspecified) -0.48%
CC(=O)c1cccc(NC(=O)c2ccc(Cl)c(S(=O)(=O)N3CCOCC3)c2)c1 -7.41%
CC(=O)c1c(C)n(-c2ccc(Cl)cc2)c2ccc(OC(=O)COc3ccccc3)cc12 -5.79%
c1ccc(N2CCN(Cc3nnc(-c4ccc5c(c4)OCO5)o3)CC2)cc1 1.18%
CCOC(=O)c1cc2c(=O)n3ccccc3nc2n(CCOC)c1=NC(=O)c1cc2ccccc2o1 -0.397%
COc1ccc(C2=NS(=O)(=O)N(C)C(C(=O)Nc3ccc(OC(F)(F)F)cc3)=C2)cc1 -19.5%
CN(Cc1ccccc1)S(=O)(=O)c1nnc(NC(=O)c2ccccc2Cl)s1 3.12%
Cc1nn(-c2ccc(N3CCCC3)nn2)c(C)c1CCC(=O)NCc1ccccc1 -10.1%
COc1cccc(-c2ccc3c(N)c(C(=O)c4ccc(F)cc4)sc3n2)c1 -2.69%
CC(NC(=O)CCCN1C(=O)CCn2nc(-c3cn(C)c4ccccc34)cc21)c1ccccc1 (stereo unspecified) -9.87%
CCOC(=O)c1c(C)oc2nc(C)nc(NCC3CCN(Cc4ccc(F)cc4)CC3)c12 0.121%
COc1ccc(CNc2ncnc3c2cnn3-c2ccc(Cl)cc2)cc1 -4.95%
O=C(Nc1ccc(Cl)c(-c2nc3ccccc3o2)c1)c1cccc2c(Cl)cccc12 -1.7%
COc1ccc(Nc2ccc3cc(S(=O)(=O)N4CCCC4)ccc3n2)cc1OC 3.87%
Cc1ccc(CSC2=Nc3ccccc3C3=NC(CCC(=O)NCc4cccs4)C(=O)N23)c(C)c1 (stereo unspecified) -2.86%
Cc1cc(N2CCN(C)CC2)nc2ccc(NC(=O)Nc3ccc(F)cc3F)cc12 -3.54%
CCOC(=O)c1ccc(N2CCN(c3cc(Cl)ccc3C)CC2)c(NC(=O)Nc2ccc(OCC)cc2)c1 6.81%
Cc1ccc(-n2c(=O)c3c(c4cc(C)ccc4n3C)n(CC(=O)NCC3CCCO3)c2=O)cc1 (stereo unspecified) 1.74%
Cc1ccc(NS(=O)(=O)c2c(C)nc3sccn3c2=O)c(Cl)c1 -0.0219%
COc1cc(Cl)c(NC(=O)CC(C)S(=O)(=O)c2cc3c(cc2C)NC(=O)CO3)c(OC)c1 (stereo unspecified) 1.11%
Cc1ccc(NC(=O)CSc2nncn3c2cc2sccc23)cc1F 1.74%
CC(C)c1ccc(NC(=O)c2cc(S(=O)(=O)N3CCc4ccccc4C3)ccc2F)cc1 -8.5%
Cc1nn(-c2ccc(N3CCCC3)nn2)c(C)c1CCC(=O)Nc1ccccc1 -6.16%
CCCCOC(=O)c1ccc(NC2=NS(=O)(=O)c3ccccc32)cc1 0.284%
Cc1cccc(NC(=O)CCn2nc(C)c3c(C)n(-c4ccccc4)nc3c2=O)c1C 0%
Cc1ccc(-c2nc3n(n2)C(=O)CC(c2ccc(C)cc2)S3)cc1 (stereo unspecified) -1.5%
COc1ccc(S(=O)(=O)NCc2ccc3c(c2)CCN3C(C)=O)cc1OC 4.22%
Cc1ccc(NC(=O)CCS(=O)(=O)c2ccc3nc(C)sc3c2)c(C)c1 -3.64%
